In the supplement of paper PMC10369915:
This is one part of the list. Rule as the data show it: active = 3.2 or more and inactive = the rest. Only a few entries rise above the background.

These binders were tested against SHP2 C-SH2 domain E139D (assay: enrichment score (SH2-bound / input frequency) (ratio); bacterial display of known human phosphotyrosine sites (pTyr-Var adds point mutants) read by sequencing; higher = stronger binding; tyrosines were phosphorylated by kinases first). Conditions: peptide library: pTyr-Var.
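Also: displayed peptides selected on beads carrying the immobilized SH2 domain, with library peptides lacking any tyrosine serving as negative controls.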

Enrichment score, active:
NKKHHYRELPV [ERN2_Y860] 3.21

Enrichment score, inactive:
NKKYHYRELPV [ERN2_Y860_H858Y] 1.28
QYNIQYSSSAA [ERBB2IP_Y981] 0.797
EVEPTYVVLYD [ERCC4_Y577_R576T] 0.683
QFNIQYSSSAA [ERBB2IP_Y981_YF] 0.987
FGPPQYNIQFS [ERBB2IP_Y977_YF] 1.06
EEEFEYMNRRR [ERBB3_Y1199_D1194E_YF] 0.428
WQLEIYRASRP [ERCC4_Y594_R589W] 0.865
QFNMQYSSSAA [ERBB2IP_Y981_I979M_YF] 0.65
EVEPTYVVLFD [ERCC4_Y577_R576T_YF] 0.615
GDFLSYREFHL [ERBIN_Y1107_S1112L_YF] 1.38
ISDEAYVMAGV [ERBB2_Y772_L768S] 0.612
YFCRWYRNQKS [EREG_Y144_R147Q] 0.341
DVELLYPLKEK [EPHX1_Y283_V285L] 0.678
EVEPRYVVLFD [ERCC4_Y577_YF] 0.688
LSDGPYSSPFE [EPOR_Y485_N487S_YF] 0.557
EEEYEYMNRRR [ERBB3_Y1199_D1194E] 0.777
LSDGPYSNPFE [EPOR_Y485_YF] 0.842
PFSSPYENSLI [EPOR_Y489_N487S_YF] 1.45

The binders below were run against SHP2 C-SH2 domain wild-type in the same assay as above. Conditions: peptide library: pTyr-Var.

Enrichment score, inactive:
NKKYHYRELPV [ERN2_Y860_H858Y] 1
QYNIQYSSSAA [ERBB2IP_Y981] 0.696
EVEPTYVVLYD [ERCC4_Y577_R576T] 0.725
NKKHHYRELPV [ERN2_Y860] 2.73
QFNIQYSSSAA [ERBB2IP_Y981_YF] 0.797
FGPPQYNIQFS [ERBB2IP_Y977_YF] 0.981
EEEFEYMNRRR [ERBB3_Y1199_D1194E_YF] 0.462
WQLEIYRASRP [ERCC4_Y594_R589W] 0.848
QFNMQYSSSAA [ERBB2IP_Y981_I979M_YF] 0.566
EVEPTYVVLFD [ERCC4_Y577_R576T_YF] 0.737
GDFLSYREFHL [ERBIN_Y1107_S1112L_YF] 1.31
ISDEAYVMAGV [ERBB2_Y772_L768S] 0.703
YFCRWYRNQKS [EREG_Y144_R147Q] 0.303
DVELLYPLKEK [EPHX1_Y283_V285L] 0.734
EVEPRYVVLFD [ERCC4_Y577_YF] 0.961
LSDGPYSSPFE [EPOR_Y485_N487S_YF] 0.554
EEEYEYMNRRR [ERBB3_Y1199_D1194E] 0.516
LSDGPYSNPFE [EPOR_Y485_YF] 0.742
PFSSPYENSLI [EPOR_Y489_N487S_YF] 1.57

These binders were tested against SHP2 N-SH2 domain L43F in the same assay as above. Conditions: peptide library: pTyr-Var.

Enrichment score, inactive:
NKKYHYRELPV [ERN2_Y860_H858Y] 0.992
QYNIQYSSSAA [ERBB2IP_Y981] 1.11
EVEPTYVVLYD [ERCC4_Y577_R576T] 0.798
NKKHHYRELPV [ERN2_Y860] 2.94
QFNIQYSSSAA [ERBB2IP_Y981_YF] 1.02
FGPPQYNIQFS [ERBB2IP_Y977_YF] 1.04
EEEFEYMNRRR [ERBB3_Y1199_D1194E_YF] 0.555
WQLEIYRASRP [ERCC4_Y594_R589W] 0.791
QFNMQYSSSAA [ERBB2IP_Y981_I979M_YF] 0.56
EVEPTYVVLFD [ERCC4_Y577_R576T_YF] 0.584
GDFLSYREFHL [ERBIN_Y1107_S1112L_YF] 1.19
ISDEAYVMAGV [ERBB2_Y772_L768S] 0.91
YFCRWYRNQKS [EREG_Y144_R147Q] 0.201
DVELLYPLKEK [EPHX1_Y283_V285L] 0.726
EVEPRYVVLFD [ERCC4_Y577_YF] 2.05
LSDGPYSSPFE [EPOR_Y485_N487S_YF] 0.516
EEEYEYMNRRR [ERBB3_Y1199_D1194E] 0.658
LSDGPYSNPFE [EPOR_Y485_YF] 0.807
PFSSPYENSLI [EPOR_Y489_N487S_YF] 1.48

Each binder was assayed against SHP2 N-SH2 domain T42A in the same assay as above. Conditions: peptide library: pTyr-Var.

Enrichment score, inactive:
NKKYHYRELPV [ERN2_Y860_H858Y] 0.966
QYNIQYSSSAA [ERBB2IP_Y981] 0.882
EVEPTYVVLYD [ERCC4_Y577_R576T] 0.522
NKKHHYRELPV [ERN2_Y860] 2.82
QFNIQYSSSAA [ERBB2IP_Y981_YF] 0.81
FGPPQYNIQFS [ERBB2IP_Y977_YF] 1
EEEFEYMNRRR [ERBB3_Y1199_D1194E_YF] 0.464
WQLEIYRASRP [ERCC4_Y594_R589W] 0.665
QFNMQYSSSAA [ERBB2IP_Y981_I979M_YF] 0.644
EVEPTYVVLFD [ERCC4_Y577_R576T_YF] 0.66
GDFLSYREFHL [ERBIN_Y1107_S1112L_YF] 1.25
ISDEAYVMAGV [ERBB2_Y772_L768S] 0.625
YFCRWYRNQKS [EREG_Y144_R147Q] 0.349
DVELLYPLKEK [EPHX1_Y283_V285L] 0.525
EVEPRYVVLFD [ERCC4_Y577_YF] 3.01
LSDGPYSSPFE [EPOR_Y485_N487S_YF] 0.553
EEEYEYMNRRR [ERBB3_Y1199_D1194E] 0.567
LSDGPYSNPFE [EPOR_Y485_YF] 0.682
PFSSPYENSLI [EPOR_Y489_N487S_YF] 1.66

Each binder was assayed against SHP2 N-SH2 domain T52S in the same assay as above. Conditions: peptide library: pTyr-Var.

Enrichment score, inactive:
NKKYHYRELPV [ERN2_Y860_H858Y] 1.29
QYNIQYSSSAA [ERBB2IP_Y981] 0.71
EVEPTYVVLYD [ERCC4_Y577_R576T] 0.688
NKKHHYRELPV [ERN2_Y860] 2.99
QFNIQYSSSAA [ERBB2IP_Y981_YF] 1.24
FGPPQYNIQFS [ERBB2IP_Y977_YF] 1.08
EEEFEYMNRRR [ERBB3_Y1199_D1194E_YF] 0.601
WQLEIYRASRP [ERCC4_Y594_R589W] 0.836
QFNMQYSSSAA [ERBB2IP_Y981_I979M_YF] 0.615
EVEPTYVVLFD [ERCC4_Y577_R576T_YF] 0.67
GDFLSYREFHL [ERBIN_Y1107_S1112L_YF] 1.21
ISDEAYVMAGV [ERBB2_Y772_L768S] 0.741
YFCRWYRNQKS [EREG_Y144_R147Q] 0.263
DVELLYPLKEK [EPHX1_Y283_V285L] 0.598
EVEPRYVVLFD [ERCC4_Y577_YF] 2.11
LSDGPYSSPFE [EPOR_Y485_N487S_YF] 0.488
EEEYEYMNRRR [ERBB3_Y1199_D1194E] 0.436
LSDGPYSNPFE [EPOR_Y485_YF] 0.576
PFSSPYENSLI [EPOR_Y489_N487S_YF] 1.44

These binders were tested against SHP2 N-SH2 domain wild-type in the same assay as above. Conditions: peptide library: pTyr-Var.

Enrichment score, inactive:
NKKYHYRELPV [ERN2_Y860_H858Y] 1.04
QYNIQYSSSAA [ERBB2IP_Y981] 0.898
EVEPTYVVLYD [ERCC4_Y577_R576T] 0.652
NKKHHYRELPV [ERN2_Y860] 2.96
QFNIQYSSSAA [ERBB2IP_Y981_YF] 0.904
FGPPQYNIQFS [ERBB2IP_Y977_YF] 1.31
EEEFEYMNRRR [ERBB3_Y1199_D1194E_YF] 0.521
WQLEIYRASRP [ERCC4_Y594_R589W] 0.867
QFNMQYSSSAA [ERBB2IP_Y981_I979M_YF] 0.833
EVEPTYVVLFD [ERCC4_Y577_R576T_YF] 0.806
GDFLSYREFHL [ERBIN_Y1107_S1112L_YF] 1.18
ISDEAYVMAGV [ERBB2_Y772_L768S] 0.802
YFCRWYRNQKS [EREG_Y144_R147Q] 0.212
DVELLYPLKEK [EPHX1_Y283_V285L] 0.673
EVEPRYVVLFD [ERCC4_Y577_YF] 1.04
LSDGPYSSPFE [EPOR_Y485_N487S_YF] 0.469
EEEYEYMNRRR [ERBB3_Y1199_D1194E] 0.317
LSDGPYSNPFE [EPOR_Y485_YF] 0.812
PFSSPYENSLI [EPOR_Y489_N487S_YF] 1.68
